Assay results reported in the supplement of paper PMC3334620.
Whole data set: some 33,000 sequences, median “E-score (-0.5 to 0.5)” near -0.043, cut for the highest 2% near 0.37. The list shows a part of the results.

Target: T1, Upc2 (UniProt Q12151)
T1 sequence: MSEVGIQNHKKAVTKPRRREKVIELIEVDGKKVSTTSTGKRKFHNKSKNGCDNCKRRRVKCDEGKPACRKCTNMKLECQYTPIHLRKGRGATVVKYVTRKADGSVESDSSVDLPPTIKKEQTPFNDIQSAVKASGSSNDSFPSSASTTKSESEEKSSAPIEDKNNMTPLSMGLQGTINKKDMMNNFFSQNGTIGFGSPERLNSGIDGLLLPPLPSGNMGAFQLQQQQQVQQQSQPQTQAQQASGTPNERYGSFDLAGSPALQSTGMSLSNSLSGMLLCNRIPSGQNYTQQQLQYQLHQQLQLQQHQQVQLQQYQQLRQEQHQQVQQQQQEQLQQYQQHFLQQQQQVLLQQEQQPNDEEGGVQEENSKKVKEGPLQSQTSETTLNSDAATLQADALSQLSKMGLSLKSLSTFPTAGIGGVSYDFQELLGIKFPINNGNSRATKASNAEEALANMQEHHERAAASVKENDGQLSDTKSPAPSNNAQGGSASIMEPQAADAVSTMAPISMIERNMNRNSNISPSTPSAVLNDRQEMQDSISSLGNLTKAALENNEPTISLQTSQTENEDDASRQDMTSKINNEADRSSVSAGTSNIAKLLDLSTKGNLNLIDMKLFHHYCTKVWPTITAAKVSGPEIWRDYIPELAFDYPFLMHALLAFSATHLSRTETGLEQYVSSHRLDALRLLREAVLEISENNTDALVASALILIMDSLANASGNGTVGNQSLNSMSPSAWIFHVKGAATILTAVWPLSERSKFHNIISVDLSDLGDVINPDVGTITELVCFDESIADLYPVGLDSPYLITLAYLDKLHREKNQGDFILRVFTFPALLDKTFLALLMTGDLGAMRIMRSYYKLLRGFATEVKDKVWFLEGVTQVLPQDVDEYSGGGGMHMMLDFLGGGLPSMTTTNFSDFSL
Experiment: PBM E-score (8-mer binding enrichment) (E-score (-0.5 to 0.5)); higher = stronger / more preferred TF binding; most listed sequences are background and not binding sites
Settings: protein concentration: 200 nM; construct: GST-full length
Experimental: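 Universal 'all 10-mer' protein binding microarrays (Agilent AMADID 015681) probed with GST-tagged S. cerevisiae TFs (full-length or DBD) made by in vitro transcription/translation (PURExpress), about 100-200 nM. Bound TF was detected with fluorescent anti-GST. Each ungapped 8-mer (which stands for itself and its reverse complement) is scored by the PBM enrichment score (E-score), a modified Wilcoxon-Mann-Whitney statistic from -0.5 to +0.5, computed with the Universal PBM Analysis Suite. Scale: above 0.35 generally sequence-specific binding.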

Sequence | PBM E-score
CCCACACG | 0.0149
AGGTTTTG | -0.0329
CACCCCCG | -0.186
ACCGGTGA | -0.0143
GCCCTCCA | -0.226
ATCTACCC | -0.0258
CCATTACG | 0.0641
ACAACTCT | -0.0655
ACAACTGA | -0.00564
ACTGTGCG | 0.134
ATTGTGTG | -0.262
ACCTCCGA | -0.0603
ATCCAACA | -0.0987
CCTGTATC | -0.0552
GCCGAGTA | -0.00493
ATGTTGCG | 0.0786
CATACTAG | -0.0879
AGATCAAC | 0.0219
AGGTACCA | -0.0227
ATCTAAGC | 0.0247
ACGAGGCC | 0.381
AACGGGGG | 0.148
ATGGTGTG | -0.0803
GCTTTCAC | -0.107
ACTTCCAC | -0.208

Sequence | PBM E-score
AAGGGAAA | -0.185
CCGAAGCG | 0.0707
GGTGCAAA | -0.14
ATACCAGA | -0.0271
ACCAGACG | -0.0469
GGGCCGGA | -0.172
ACGTACGA | 0.431
ATGGCGAG | -0.0492
CAGCCGTA | 0.299
AGTATGGA | -0.128
CACGATGA | 0.169
AGCCCGTG | -0.0733
AATCAGGC | -0.152
GTTAAAGA | 0.171
ACCCTCCT | -0.0647
GATTGAGC | 0.0285
CAGTAGCA | 0.0028
CTAGCTGA | -0.0756
AGTTATCC | -0.015
TGCGGGAA | -0.00487
GCTCAACC | -0.0491
GAAATTGA | -0.0434
AGTAAGAA | 0.00183
AAGAGAAA | -0.185
ACGTGTCC | -0.0289

Sequence | PBM E-score
CCAAACAC | -0.0449
GCGTGGGA | 0.0201
AACCGCTG | 0.00261
AATACCAG | 0.00549
GCATTCTA | -0.0821
CGAAAGGA | 0.113
AAAGCACG | 0.122
CACCCCCA | -0.208
AAGACCTG | -0.16
AAAGCGAG | 0.217
ATTGAGTC | -0.155
GTCTACGA | 0.346
AGTTGTCC | 0.0243
CGGAACGA | 0.468
GTCTAACA | -0.263
AAATTGCA | -0.0477
AAACCGCA | -0.176
GACCCTGA | -0.141
CATCTATC | -0.0942
TCGGGACA | -0.103
AGTAGGTG | -0.361
CACGTTCA | 0.092
CCCGGTTC | -0.0294
AGGACAAA | 0.113
GCGCGATA | 0.0909

Sequence | PBM E-score
TGCAGAAA | 0.222
GATTCAGA | -0.136
CCCTACAG | -0.186
ATCTTCAC | -0.107
ACGCTTCA | -0.0325
AAACCCGT | 0.103
CCGGCTTA | -0.245
ACGGTGTC | 0.191
GACCGCTC | -0.118
CTCTCCAG | -0.203
ACATATGT | -0.184
AGCTCCCC | -0.178
CGATCTGA | -0.103
ACAGCGGC | -0.0328
ACCTCCGG | -0.243
AGAATCCA | -0.217
AAGATATT | -0.113
GTATGTTA | 0.221
CGACTCGC | 0.248
GATTAGTA | 0.0619
GAGAATTA | -0.143
ATAACGAC | 0.159
ACCAGACC | 0.125
CCAACGAC | 0.0191
GATTAATA | 0.0404

Sequence | PBM E-score
GGGGAATA | -0.254
TAAAACAA | 0.134
CGATAAAC | 0.305
GTCTCAGA | -0.25
AGGCTACC | -0.191
ATGTTTTG | 0.00718
CAGTACGG | 0.257
GCGTCAGC | -0.0319
GCTTGCCC | -0.179
CGCTATAC | 0.392
GTACCGTA | 0.343
GATTGGGC | -0.0525
GGAAAACA | -0.0688
CTCTATCA | -0.26
CAAACGTA | 0.259
ACTGACCT | -0.058
CGTTACAG | 0.201
GTTACACA | -0.0801
AGGGTTCA | -0.0645
CTATTTTA | 0.0531
ATCGTTAA | 0.435
CCAACAAG | -0.23
AGTGGTCC | -0.123
CCTGGTAC | 0.192
GTAATGTA | 0.0349

Sequence | PBM E-score
AAGGCTAG | -0.0862
CGTTGGCC | -0.187
ACCCTGTA | -0.0196
ACTGTACT | 0.0214
ATAATAGG | -0.0958
ATCATGTC | -0.116
CTCTATTA | -0.0451
CAGAGGGG | -0.281
GAGTGAGC | -0.106
GGGAACAA | 0.0652
CGAGGGAA | 0.135
CTATTGGC | -0.183
AGTCCGCG | -0.0966
AAGGTCAG | -0.239
CCCACGAC | -0.225
TCGGGGAA | 0.014
CGGGTTAG | 0.0259
AATTGAGC | -0.0691
CCAACTCC | -0.0247
ACGAAGAT | 0.349
ACACTGTC | -0.101
AAGCACTC | -0.164
GCGGAGCA | -0.131
AATTTCAC | -0.136
ACTCGTCT | 0.167

Sequence | PBM E-score
ACATCTTA | -0.0462
CGCATAGC | 0.265
GGACATCC | -0.155
CCTTGCGC | -0.219
CCTACACG | 0.0945
ACAGCAGA | 0.0794
CCAAAGGG | -0.307
ATGTTGAC | -0.0223
GAGTCTAC | 0.00323
CAGGGGGA | -0.377
GCTTCCCA | 0.094
CTATCAAC | 0.0734
TTAATGAA | 0.0861
CTATGCTA | -0.168
ATATCGAT | 0.052
AAAGCTTC | -0.0314
ATAAATTA | 0.312
GTTGACGA | -0.031
CACCATAC | 0.132
ACCAGTCA | -0.194
CAGTGCAA | -0.00228
GTTTCTAA | 0.206
